This is an account of results in the supplement of paper PMC10037445.

“And” between values parts separate entries of the source, which are not always exact repeats. Equal values may be shown once. Whole data set: some 2,900 compounds, median “NF-kB SEAP reporter activity, fold change vs agonist alone” near 0.99, cut for the highest 2% near 2.6. Some of the results follow.

Experiment [1] relates to RAW-Dual. In words: NF-kB SEAP reporter activity, fold change vs agonist alone; higher = enhanced NF-kB activity. The note with it: library stock concentration (final ~1000-fold dilution): 10 mM. In a few lines: (§1)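 After 50 nL of library stock was delivered by pin tool to RAW-Dual macrophages (50,000 cells/well, DMEM, 384-well plates), a PRR agonist was added 1 h later and the plates were kept at 37 °C, 5% CO2. Twenty hours later, IRF was read from supernatant by QuantiLuc luminescence and NF-κB by QuantiBlue absorbance at 620 nm. Reporter activity is stated as fold change over agonist-alone wells. Wells with IncuCyte confluency under 70% of agonist controls in both mask sets were counted as cytotoxic.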

The subject of experiment [2] is RAW-Dual. The experiment is described as follows: NF-kB SEAP reporter activity, fold change vs agonist alone; cytotoxicity flag (confluency mask): not cytotoxic; higher = enhanced NF-kB activity. In a few lines: as §1
Experiment [3] deals with RAW-Dual. In words: NF-kB SEAP reporter activity, fold change vs agonist alone; cytotoxicity flag (confluency mask): cytotoxic (confluency <70% of control); higher = enhanced NF-kB activity. In outline:
as §1

[4] abbreviates: cytotoxicity flag (confluency mask): not cytotoxic, agonist: Imiquimod (TLR7) […].
[5] abbreviates: cytotoxicity flag (confluency mask): not cytotoxic, agonist: MPLA (TLR4) […].
Setting [6] is: agonist: ODN 1826 (TLR9) 0.5 ug/mL.
Setting [7] is: agonist: Pam2CSK4 (TLR2/6) 0.1 ug/mL.
Setting [8] is: agonist: Pam3CSK4 (TLR2/1) 0.1 ug/mL.

For the molecule `CC1(c2cc(-c3cncnc3)c(F)cc2F)CCSC(N)=N1` (stereo unspecified), the “NF-kB SEAP reporter activity” value with RAW-Dual [1] (setting [4]) was found to be 0.639; in the experiment on RAW-Dual [1] (setting [5]), 0.882.
As for `CC1(c2cc(-c3cncnc3)c(F)cc2F)CCSC(N)=N1` (stereo unspecified) (library stock concentration (final ~1000-fold dilution): 10 mM), the “NF-kB SEAP reporter activity” value in the experiment on RAW-Dual [2] (agonist: LPS (TLR4) 0.1 ug/mL) worked out at 1.1; in the experiment with RAW-Dual [2] (setting [6]), 0.911; in the experiment on RAW-Dual [2] (setting [7]) it was 1.06; with RAW-Dual [2] (setting [8]), 0.994.
`CN1CCCC1CCOC(C)(c1ccccc1)c1ccc(Cl)cc1.O=C(O)/C=C/C(=O)O` (stereo unspecified): the “NF-kB SEAP reporter activity” value in the experiment with RAW-Dual [1] (setting [4]) was 1.7; with RAW-Dual [1] (setting [5]), 0.942.
Regarding `CN1CCCC1CCOC(C)(c1ccccc1)c1ccc(Cl)cc1.O=C(O)/C=C/C(=O)O` (stereo unspecified) (library stock concentration (final ~1000-fold dilution): 10 mM), the “NF-kB SEAP reporter activity” value in the experiment on RAW-Dual [2] (agonist: LPS (TLR4) 0.1 ug/mL) turned out to be 1.32; in the experiment on RAW-Dual [2] (setting [6]), 0.754; with RAW-Dual [2] (setting [7]), 0.873; in the experiment on RAW-Dual [2] (setting [8]), 0.64.
`Cc1ccc(S(=O)(=O)NC(=O)NN2CC3CCCC3C2)cc1` (stereo unspecified): the “NF-kB SEAP reporter activity” value is 0.878 in the experiment with RAW-Dual [1] (setting [4]) and 0.974 with RAW-Dual [1] (setting [5]).
On to `Cc1ccc(S(=O)(=O)NC(=O)NN2CC3CCCC3C2)cc1` (stereo unspecified) (library stock concentration (final ~1000-fold dilution): 10 mM), for which the “NF-kB SEAP reporter activity” value worked out at 1.34 in the experiment with RAW-Dual [2] (agonist: LPS (TLR4) 0.1 ug/mL), 1.02 with RAW-Dual [2] (setting [6]), 1.11 in the experiment with RAW-Dual [2] (setting [7]) and 1.03 in the experiment with RAW-Dual [2] (setting [8]).
In the case of `Cc1noc(C)c1-c1ccc2[nH]c(=O)n3c2c1OCC3c1ccccn1` (stereo unspecified), the “NF-kB SEAP reporter activity” value in the experiment with RAW-Dual [1] (setting [4]) worked out at 1.5; with RAW-Dual [1] (setting [5]), 2.28.
As to `Cc1noc(C)c1-c1ccc2[nH]c(=O)n3c2c1OCC3c1ccccn1` (stereo unspecified) (library stock concentration (final ~1000-fold dilution): 10 mM), the “NF-kB SEAP reporter activity” value amounted to 1.61 in the experiment on RAW-Dual [2] (agonist: LPS (TLR4) 0.1 ug/mL), 1.67 in the experiment on RAW-Dual [2] (setting [6]), 0.501 in the experiment with RAW-Dual [2] (setting [7]) and 1.34 in the experiment with RAW-Dual [2] (setting [8]).
On to `Cc1ccc(NC(=O)c2ccc(CN3CCN(C)CC3)cc2)cc1Nc1nc(-c2cccnc2)cs1` (library stock concentration (final ~1000-fold dilution): 10 mM), for which the “NF-kB SEAP reporter activity” value in the experiment with RAW-Dual [3] (agonist: LPS (TLR4) 0.1 ug/mL) was found to be 0.472; in the experiment with RAW-Dual [3] (setting [6]), 0.837; with RAW-Dual [3] (setting [7]), 0.329; in the experiment on RAW-Dual [3] (setting [8]), 0.721.
With `Cc1ccc(NC(=O)c2ccc(CN3CCN(C)CC3)cc2)cc1Nc1nc(-c2cccnc2)cs1`, the “NF-kB SEAP reporter activity” value amounted to 1.06 in the experiment with RAW-Dual [1] (cytotoxicity flag (confluency mask): cytotoxic (confluency <70% of control), agonist: Imiquimod (TLR7) […]) and 1.44 in the experiment on RAW-Dual [1] (cytotoxicity flag (confluency mask): cytotoxic (confluency <70% of control), agonist: MPLA (TLR4) […]).
As for `CN(C)Cc1cccc(N/C(=C2\C(=O)Nc3cc(C(=O)N(C)C)ccc32)c2ccccc2)c1`, the figures for the “NF-kB SEAP reporter activity” value in the experiment on RAW-Dual [1] (setting [4]) and in the experiment on RAW-Dual [1] (setting [5]) were 0.914 and 1.4, respectively.
As for `CN(C)Cc1cccc(N/C(=C2\C(=O)Nc3cc(C(=O)N(C)C)ccc32)c2ccccc2)c1` (library stock concentration (final ~1000-fold dilution): 10 mM), the “NF-kB SEAP reporter activity” value in the experiment with RAW-Dual [2] (agonist: LPS (TLR4) 0.1 ug/mL) turned out to be 1.89; in the experiment with RAW-Dual [2] (setting [6]), 0.401; in the experiment on RAW-Dual [2] (setting [7]), 0.496; in the experiment on RAW-Dual [2] (setting [8]), 0.864.
In the case of `O=C(Nc1cc(C(F)(F)F)ccc1N1CCCCC1)c1ccncc1`, the “NF-kB SEAP reporter activity” value came to 0.957 with RAW-Dual [1] (setting [4]) and 1.01 in the experiment with RAW-Dual [1] (setting [5]).
On to `O=C(Nc1cc(C(F)(F)F)ccc1N1CCCCC1)c1ccncc1` (library stock concentration (final ~1000-fold dilution): 10 mM), for which the “NF-kB SEAP reporter activity” value with RAW-Dual [2] (agonist: LPS (TLR4) 0.1 ug/mL) stood at 0.802; with RAW-Dual [2] (setting [6]), 0.875; with RAW-Dual [2] (setting [7]) it was 0.764; with RAW-Dual [2] (setting [8]), 0.771.
As to `COc1cc2nc(N3CCN(C(=O)c4ccco4)CC3)nc(N)c2cc1OC` (library stock concentration (final ~1000-fold dilution): 10 mM), the “NF-kB SEAP reporter activity” value with RAW-Dual [2] (agonist: LPS (TLR4) 0.1 ug/mL) was 1.63; in the experiment with RAW-Dual [2] (setting [6]) it was 1.73; in the experiment with RAW-Dual [2] (setting [7]), 1.07; in the experiment with RAW-Dual [2] (setting [8]), 1.28.
Consider `COc1cc2nc(N3CCN(C(=O)c4ccco4)CC3)nc(N)c2cc1OC`, for which the figures for the “NF-kB SEAP reporter activity” value in the experiment on RAW-Dual [1] (setting [4]) and in the experiment on RAW-Dual [1] (setting [5]) were 2 and 1.41, respectively.
Take `O=c1cc(-c2ccccc2)oc2cc(OC3OC(CO)C(O)C(O)C3O)c(O)c(O)c12` (stereo unspecified): the “NF-kB SEAP reporter activity” value came to 0.869 in the experiment on RAW-Dual [1] (setting [4]) and 0.993 in the experiment with RAW-Dual [1] (setting [5]).
Consider `O=c1cc(-c2ccccc2)oc2cc(OC3OC(CO)C(O)C(O)C3O)c(O)c(O)c12` (stereo unspecified) (library stock concentration (final ~1000-fold dilution): 10 mM), for which the “NF-kB SEAP reporter activity” value with RAW-Dual [2] (agonist: LPS (TLR4) 0.1 ug/mL) was determined as 1.33; in the experiment with RAW-Dual [2] (setting [6]) it was 0.918; in the experiment with RAW-Dual [2] (setting [7]) it was 1.05; in the experiment with RAW-Dual [2] (setting [8]), 1.25.
As for `CC(=O)OC12COC1CC(O)C1(C)C(=O)C(O)C3=C(C)C(OC(=O)C(O)C(NC(=O)OC(C)(C)C)c4ccccc4)CC(O)(C(OC(=O)c4ccccc4)C21)C3(C)C` (stereo unspecified), the figures for the “NF-kB SEAP reporter activity” value in the experiment on RAW-Dual [1] (setting [4]) and in the experiment with RAW-Dual [1] (setting [5]) were 1.14 and 1.24, respectively.
`CC(=O)OC12COC1CC(O)C1(C)C(=O)C(O)C3=C(C)C(OC(=O)C(O)C(NC(=O)OC(C)(C)C)c4ccccc4)CC(O)(C(OC(=O)c4ccccc4)C21)C3(C)C` (stereo unspecified) (library stock concentration (final ~1000-fold dilution): 10 mM): the “NF-kB SEAP reporter activity” value in the experiment on RAW-Dual [2] (agonist: LPS (TLR4) 0.1 ug/mL) is 1.2; in the experiment on RAW-Dual [2] (setting [6]), 0.995; in the experiment on RAW-Dual [2] (setting [7]), 1.02; with RAW-Dual [2] (setting [8]) it was 0.841.
Consider `Brc1ccc(CCCCn2ccnc2)cc1` (library stock concentration (final ~1000-fold dilution): 10 mM), for which the “NF-kB SEAP reporter activity” value is 0.672 and 0.736 with RAW-Dual [2] (agonist: LPS (TLR4) 0.1 ug/mL); 0.566 and 0.595 with RAW-Dual [2] (setting [6]); 0.493 and 0.552 in the experiment with RAW-Dual [2] (setting [7]); 0.585 and 0.645 in the experiment with RAW-Dual [2] (setting [8]).
Turning to `COC1C(=O)C2(C)C(OC)CC3OCC3(OC(C)=O)C2C(OC(=O)c2ccccc2)C2(O)CC(OC(=O)C(O)C(NC(=O)OC(C)(C)C)c3ccccc3)C(C)=C1C2(C)C` (stereo unspecified) (library stock concentration (final ~1000-fold dilution): 10 mM), the “NF-kB SEAP reporter activity” value turned out to be 1.71 in the experiment with RAW-Dual [2] (agonist: LPS (TLR4) 0.1 ug/mL), 1.2 in the experiment with RAW-Dual [2] (setting [6]), 1.01 in the experiment on RAW-Dual [2] (setting [7]) and 0.912 in the experiment on RAW-Dual [2] (setting [8]).
As to `COC1C(=O)C2(C)C(OC)CC3OCC3(OC(C)=O)C2C(OC(=O)c2ccccc2)C2(O)CC(OC(=O)C(O)C(NC(=O)OC(C)(C)C)c3ccccc3)C(C)=C1C2(C)C` (stereo unspecified), the “NF-kB SEAP reporter activity” value with RAW-Dual [1] (setting [4]) was 1.57; in the experiment on RAW-Dual [1] (setting [5]), 1.25.
For `COc1ccc(C2OCC3C(c4cc(OC)c(OC)c(OC)c4)OCC23)cc1OC` (stereo unspecified), in that order: 0.813 and 1.03.
Turning to `COc1ccc(C2OCC3C(c4cc(OC)c(OC)c(OC)c4)OCC23)cc1OC` (stereo unspecified) (library stock concentration (final ~1000-fold dilution): 10 mM), the “NF-kB SEAP reporter activity” value in the experiment on RAW-Dual [2] (agonist: LPS (TLR4) 0.1 ug/mL) turned out to be 1.2; in the experiment on RAW-Dual [2] (setting [6]), 1; with RAW-Dual [2] (setting [7]) it was 1.01; in the experiment on RAW-Dual [2] (setting [8]), 1.71.
